# In article PMC4336329 (PLoS ONE, 2015):
# In all, about 310,000 compounds went through this assay and about 2,200 (0.71%) showed an effect of 50% or more. The effect is printed as a negative number. The list shows a part of the results.
# Biological target: human ether-à-go-go-related gene (hERG) potassium channel (human, UniProt Q12809)
# Test: primary screen, population patch clamp on CHO cells stably expressing hERG
# Chain of human ether-à-go-go-related gene (hERG) potassium channel (Q12809 whole entry, looked up): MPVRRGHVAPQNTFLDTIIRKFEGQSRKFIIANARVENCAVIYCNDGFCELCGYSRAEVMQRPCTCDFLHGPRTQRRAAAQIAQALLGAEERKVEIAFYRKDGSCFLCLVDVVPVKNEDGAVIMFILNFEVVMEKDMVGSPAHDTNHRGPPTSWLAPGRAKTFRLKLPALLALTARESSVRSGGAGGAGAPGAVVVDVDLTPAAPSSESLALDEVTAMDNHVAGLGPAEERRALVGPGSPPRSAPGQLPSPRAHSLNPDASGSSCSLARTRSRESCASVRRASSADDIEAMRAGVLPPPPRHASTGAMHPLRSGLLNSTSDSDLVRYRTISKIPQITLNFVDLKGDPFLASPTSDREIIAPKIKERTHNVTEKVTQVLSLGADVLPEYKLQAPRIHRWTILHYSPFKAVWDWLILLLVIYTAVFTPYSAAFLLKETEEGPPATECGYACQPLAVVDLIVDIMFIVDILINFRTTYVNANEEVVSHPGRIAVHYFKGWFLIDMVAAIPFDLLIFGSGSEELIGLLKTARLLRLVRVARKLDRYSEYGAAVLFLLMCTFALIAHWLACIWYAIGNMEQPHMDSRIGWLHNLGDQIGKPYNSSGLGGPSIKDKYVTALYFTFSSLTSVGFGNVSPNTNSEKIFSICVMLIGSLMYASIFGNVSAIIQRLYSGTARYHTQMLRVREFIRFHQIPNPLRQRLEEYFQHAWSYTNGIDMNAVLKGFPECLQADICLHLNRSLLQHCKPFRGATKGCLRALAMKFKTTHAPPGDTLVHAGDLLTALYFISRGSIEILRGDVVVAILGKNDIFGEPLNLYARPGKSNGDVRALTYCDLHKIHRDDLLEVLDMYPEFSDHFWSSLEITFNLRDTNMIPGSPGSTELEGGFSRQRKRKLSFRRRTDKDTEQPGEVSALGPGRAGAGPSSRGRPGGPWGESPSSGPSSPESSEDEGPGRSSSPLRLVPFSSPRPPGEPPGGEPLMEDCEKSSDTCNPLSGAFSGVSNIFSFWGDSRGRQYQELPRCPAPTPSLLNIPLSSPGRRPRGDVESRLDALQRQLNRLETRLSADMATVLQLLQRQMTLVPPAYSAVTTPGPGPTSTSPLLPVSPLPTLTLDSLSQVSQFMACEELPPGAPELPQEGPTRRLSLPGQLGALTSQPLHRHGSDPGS
row,Structure (SMILES),"hERG current change (%, negative = inhibition) at 1uM [%]"
1,O=C1CC(N(O)c2ccccc2)C(=O)N1Cc1ccccc1 (centres unmarked),8.95
2,CCc1ccc(N(CC(=O)NCc2ccco2)C(=O)CCC(=O)Nc2ccccn2)cc1,2.87
3,COCCCN(C(=O)c1ccc2ccccc2n1)c1c(N)n(Cc2ccccc2)c(=O)[nH]c1=O,14.5
4,CCOC(=O)c1sc(NC(=O)CN2CC(C)OC(C)C2)nc1C (centres unmarked),7.62
5,N#Cc1ccccc1N=C1CCCN1Cc1ccccc1,14.5
6,Cc1ccc(NC(=O)CSc2nc(=O)n(Cc3ccncc3)c3c2CCC3)c(C)c1,5.53
7,CCn1c(CNc2ccc(Cl)cc2)nnc1SCc1ccc(Cl)cc1,9.96
8,O=C(CN1C(=O)c2ccccc2C1=O)NCc1ccncc1,0.454
9,COc1cc(OC)c(OC)cc1CNC(=O)c1cc(=O)[nH]c2ccccc12,13.8
10,Cc1c(Cc2ccccc2)c(=O)oc2cc(O)ccc12,11.5
11,Cl.OC(COc1ccccc1)CN1CCN(Cc2ccc3c(c2)OCO3)CC1 (centres unmarked),-34.3
12,C=CCCC(=O)Nc1ccc(COC(=O)N2CCOCC2)cc1,14.8
13,CC(C)C(c1nnnn1C1CCCCC1)N1CCc2ccccc21 (centres unmarked),18
14,CCC(=O)Nc1ccc(NCc2cccs2)cc1,11.4
15,COc1ccc(-c2cc(C(=O)NCCCN3CCOCC3)no2)cc1,13.6
16,CSCC[C@H](NC(=O)N1CCn2c1nc1ccccc12)C(=O)N1CCCCC1,12.4
17,CC1CCC(C(C)C)C(=O)/C1=C\c1ccc(NC(=O)CCC(=O)O)cc1 (centres unmarked),7.12
18,Cc1ccc(-n2cc(CN3CCN(C(=O)c4ncn[nH]4)CC3)c(-c3ccc(F)cc3)n2)cc1,5.89
19,CCOC(=O)Cc1csc(NC(=O)c2c(O)c3c(n(CC(C)C)c2=O)CCCC3)n1,9.19
20,COc1ccc(C2CC(c3ccc(Cl)cc3)=NN2C(=O)c2cccc([N+](=O)[O-])c2)cc1 (centres unmarked),15.9
21,O=C(O)c1ccc(SCc2ccccc2)nc1,3.94
22,O=C1CCC(CCC(=O)N2CCCC(C(=O)c3cccc(C(F)(F)F)c3)C2)=NN1 (centres unmarked),-1.34
23,COc1cc(/C=N/NC(=O)c2cc(-c3ccc4c(c3)OCO4)n[nH]2)ccc1O,8.72

row,Structure (SMILES),"hERG current change (%, negative = inhibition) at 1uM [%]"
1,CCCCn1cnc2cc(NCc3cccc(OC)c3O)ccc21,-7.49
2,CCC(C)c1ccc(C2C3=C(Nc4nc(N)[nH]c(=O)c42)c2ccccc2C3=O)cc1 (centres unmarked),12.6
3,CCS(=O)(=O)N1CCCC(C(=O)c2ccc(OC)cc2C)C1 (centres unmarked),17.5
4,CCCCN(C)CCNC(=O)CSCc1ccc(C)cc1.O=C(O)C(=O)O,-1.3
5,Cc1cccc(/C=C(\C#N)C(=O)Nc2ccccn2)c1,16.4
6,COC(=O)CCC(NC(=O)c1cc(C)oc1C)C(=O)OC (centres unmarked),9.89
7,Cl.Clc1ccc(C2=NCCN2)cc1,6.48
8,C=CCNC(=O)c1ccc2c3n(nc2c1)-c1ccc(Cl)cc1CO3,-16.1
9,COc1ccc(C(=O)Nc2ccc(Cl)c(Cl)c2)c(OC)n1,11.7
10,Cc1ccc(S(=O)(=O)N2CCN(C)CC2)cc1,13.7
11,CC1CCN(C(=O)Cn2c(=O)n(CCc3ccccc3)c(=O)c3ccccc32)CC1,-4.89
12,COc1ccc(C(=O)OCC(=O)c2ccc(Br)s2)c(OC)c1,9.46
13,CCN1CCN(C(c2ccc(OC)cc2)c2nnnn2Cc2ccc3c(c2)OCO3)CC1.Cl (centres unmarked),-17.4
14,CNC(=O)NC(=O)COC(=O)c1n[nH]c2ccccc12,9.81
15,CNS(=O)(=O)c1cc(-c2nnc(Nc3ccc(NC(C)=O)cc3)c3ccccc23)ccc1C,17.8
16,Cc1onc(-c2c(Cl)cccc2Cl)c1-c1nnc(-c2ccc(Cl)cc2)o1,14.1
17,CCOC(=O)C1=C(CCc2ccccc2)NC(=O)NC1c1cccc([N+](=O)[O-])c1 (centres unmarked),12.3
18,CCOc1nc(Nc2cc(Cl)ccc2OC)nc(OCC)n1,18.3
19,O=c1cc(-c2ccc(O)cc2)oc2c1ccc1ccccc12,6.79
20,CCOC(=O)c1ccc(Nc2nc(C)cc(C)c2C#N)cc1,15.6
21,Fc1ccc(-c2cc(C(F)(F)F)nc(-n3cncn3)n2)cc1,-8.19
22,CCOC(=O)N1CCN(C(=O)COc2cc(C)c(Cl)c(C)c2)CC1,3.75
23,CCOC(=O)Nc1ccc(S(=O)(=O)Nc2cc(C)on2)cc1,7.87

row,Structure (SMILES),"hERG current change (%, negative = inhibition) at 1uM [%]"
1,Cc1ccccc1OC(=O)C1C(c2ccccc2)C(C(=O)O)C1c1ccccc1 (centres unmarked),1.33
2,CN1N=C(C(C)(C)C)CSC1=Nc1ccc(F)cc1,8.14
3,CC(C)=Nc1ccccc1C1COC(=O)C1=N (centres unmarked),1.12
4,CCC(=O)N1CCCn2c1nc1ccccc12,2.19
5,COc1ccc(C(=O)C2CCCN(Cc3ccc(Sc4nncn4C)o3)C2)cc1F (centres unmarked),7.53
6,CC(=O)Nc1ccc(NC(=O)Nc2cccc(C)c2C)cc1,18.6
7,Cc1cccc(NC(=O)Nc2nnc(-c3ccccc3)o2)c1,12.6
8,COc1cccc(-n2c(=O)c3cc(OC)c(OC)cc3n(CC(=O)Nc3cc(C)[nH]n3)c2=O)c1,11.3
9,Cc1ccc(S(=O)(=O)N2CCN(C(=O)CCn3cncn3)CC2)cc1C,9.41
10,CCCCC(CCC(=O)Nc1ccc(C(=O)OC)cc1)C(=O)O (centres unmarked),11.9
11,Cc1nn(Cc2ccccc2)c(C)c1C(=O)NCC(c1cccs1)N1CCOCC1 (centres unmarked),5.84
12,COc1ccc(N2CCN(CCCNC(=O)c3ccc(CS(=O)(=O)c4ccc(OC)cc4)o3)CC2)cc1,-43.1
13,COc1cccc(/C=C(/CC(=O)Nc2ccc(N3CCOCC3)cc2)c2nc3ccccc3s2)c1,12.7
14,COc1cc(C(=O)NNC2=NC(C)(C)Cc3cc(C)c(C)cc32)cc(OC)c1OC,16.8
15,COc1cccc(NC(=O)CCC2CCN(C(=O)c3scnc3C)CC2)c1,4.22
16,Cc1ccnc2nc(C(=O)OCC(=O)NC3CCCC(C)C3C)nn12 (centres unmarked),2.22
17,CN(CCO)c1nc(NCc2ccccc2)c2cnn(C)c2n1,14.7
18,CCCn1c(C(=O)c2ccccc2OC)nc2ccccc21,-5.99
19,CSCCCN1CC[C@@H](N2CCN(c3ccccc3F)CC2)[C@H](O)C1,3.23
20,Cc1ccccc1-c1nc(CS(=O)(=O)CC(=O)N2CCCCC2)c(C)o1,2.38
21,COc1ccccc1CNC(=O)C(C)NS(=O)(=O)c1ccccc1 (centres unmarked),5.92
22,Cc1noc(C)c1COc1cccc(C(=O)N2CCc3ccccc32)c1,8.04
23,O=C(CSc1nnc(Cc2cc(=O)[nH]c(=O)[nH]2)n1-c1ccccc1)N1CCCC1,20.2

row,Structure (SMILES),"hERG current change (%, negative = inhibition) at 1uM [%]"
1,O=C(COc1ccc2ccccc2c1)Nc1cccc2c1C(=O)NC2=O,9.53
2,Cc1nc(C#N)c(N/N=C/c2cccc(Cl)c2)o1,5.76
3,CCCCOc1ccc(Cc2c(Cl)nc(SC)nc2N2CCOCC2)cc1,14.9
4,CCSc1nnc(NC(=O)C2C3C=CC(C3)C2C(=O)O)s1 (centres unmarked),6.02
5,CN(C(=O)c1cc(COc2ccc(F)cc2Cl)on1)C1CCCc2ccccc21 (centres unmarked),15.2
6,CCCc1[nH]nc2c1C(c1ccc(Br)s1)C(C#N)=C(N)O2 (centres unmarked),7.85
7,COc1ccc(C(=O)/C=C/Nc2ccc(S(=O)(=O)Nc3nc(C)cc(C)n3)cc2)c(OC)c1,5.35
8,Cc1noc(C)c1S(=O)(=O)N(C)CC(=O)NCc1ccccc1,2.24
9,Cn1nnnc1SCC(=O)N1CCN(S(=O)(=O)c2ccc(Cl)cc2)CC1,4.43
10,CC1CCN(C(=O)C(NS(=O)(=O)c2cccc3nsnc23)c2ccccc2)CC1 (centres unmarked),-30
11,CCOc1ccc(Cl)cc1S(=O)(=O)n1cnc2ccccc21,0.503
12,COc1ccc(-n2nc([N+](=O)[O-])c(=NCc3ccco3)n2O)cc1,13.4
13,CCC(=O)N=c1sc2c(C)cc(C)cc2n1CC(=O)OC,3.44
14,O=C(NCCS(=O)(=O)N1CCN(c2ccccc2F)CC1)C1CC(=O)N(c2ccccc2)C1 (centres unmarked),11.6
15,CC1Cc2ccccc2N1C(=O)c1cc2sccc2n1Cc1ccc(F)cc1 (centres unmarked),15.9
16,COc1ccc(CNC(=S)Nc2ccccc2Cl)cc1,12.8
17,Cc1cc(NC(=O)C(C)SCC(=O)Nc2ccccc2C(C)(C)C)no1 (centres unmarked),11.1
18,O=C(CN1C(=O)NC2(CCc3ccccc32)C1=O)c1ccc(F)cc1 (centres unmarked),-41.7
19,COc1ccc(NC(=S)N/N=C/c2ccc(F)cc2)cc1OC,15.5
20,COc1ccccc1NC(=O)CCCCCN1C(=O)c2cccc([N+](=O)[O-])c2C1=O,7.21
